± gives the standard deviation of the averaged measurements. Laboratory Escherichia coli strains with one amino-acid change in an essential protein, pooled on minimal glucose agar with carbenicillin or gentamicin at twice the control MIC (plus kanamycin and chloramphenicol for the plasmids), 48 h. Fold change of barcode share against drug-free plates; higher = less susceptible. Active = above 20 in both replicates (the paper's putatively resistant). '<' = one read or none on drug, '>' = one read or none on a drug-free plate. Shares are relative, so most strains fall below 1 when a few take over. Listed are strains with at least 15 reads on both drug-free plates, and hits; most hits rest on fewer reference reads. Replicate rank correlation about 0.5. Edits are read from barcodes.
B1: mukB V714A (protein)
chain: MIERGKFRSLTLINWNGFFARTFDLDELVTTLSGGNGAGKSTTMAAFVTALIPDLTLLHFRNTTEAGATSGSRDKGLHGKLKAGVCYSMLDTINSRHQRVVVGVRLQQVAGRDRKVDIKPFAIQGLPMSVQPTQLVTETLNERQARVLPLNELKDKLEAMEGVQFKQFNSITDYHSLMFDLGIIARRLRSASDRSKFYRLIEASLYGGISSAITRSLRDYLLPENSGVRKAFQDMEAALRENRMTLEAIRVTQSDRDLFKHLISEATNYVAADYMRHANERRVHLDKALEFRRELHTSRQQLAAEQYKHVDMARELAEHNGAEGDLEADYQAASDHLNLVQTALRQQEKIERYEADLDELQIRLEEQNEVVAEAIERQQENEARAEAAELEVDELKSQLADYQQALDVQQTRAIQYNQAIAALNRAKELCHLPDLTADCAAEWLETFQAKELEATEKMLSLEQKMSMAQTAHSQFEQAYQLVVAINGPLARNEAWDVARELLREGVDQRHLAEQVQPLRMRLSELEQRLREQQEAERLLADFCKRQGKNFDIDELEALHQELEARIASLSDSVSNAREERMALRQEQEQLQSRIQSLMQRAPVWLAAQNSLNQLSEQCGEEFTSSQDVTEYLQQLLEREREAIVERDEVGARKNAVDEEIERLSQPGGSEDQRLNALAERFGGVLLSEIYDDVSLEDAPYFSALYGPSRHAIVAPDLSQVTEHLEGLTDCPEDLYLIEGDPQSFDDSVFSVDELEKAVVVKIADRQWRYSRFPEVPLFGRAARESRIESLHAEREVLSERFATLSFDVQKTQRLHQAFSRFIGSHLAVAFESDPEAEIRQLNSRRVELERALSNHENDNQQQRIQFEQAKEGVTALNRILPRLNLLADDSLADRVDEIRERLDEAQEAARFVQQFGNQLAKLEPIVSVLQSDPEQFEQLKEDYAYSQQMQRDARQQAFALTEVVQRRAHFSYSDSAEMLSGNSDLNEKLRERLEQAEAERTRAREALRGHAAQLSQYNQVLASLKSSYDTKKELLNDLQRELQDIGVRADSGAEERARIRRDELHAQLSNNRSRRNQLEKALTFCEAEMDNLTRKLRKLERDYFEMREQVVTAKAGWCAVMRMVKDNGVERRLHRRELAYLSADDLRSMSDKALGALRLAVADNEHLRDVLRMSEDPKRPERKIQFFVAVYQHLRERIRQDIIRTDDPVEAIEQMEIELSRLTEELTSREQKLAISSRSVANIIRKTIQREQNRIRMLNQGLQNVSFGQVNSVRLNVNVRETHAMLLDVLSEQHEQHQDLFNSNRLTFSEALAKLYQRLNPQIDMGQRTPQTIGEELLDYRNYLEMEVEVNRGSDGWLRAESGALSTGEAIGTGMSILVMVVQSWEDESRRLRGKDISPCRLLFLDEAARLDARSIATLFELCERLQMQLIIAAPENISPEKGTTYKLVRKVFQNTEHVHVVGLRGFAPQLPETLPGTDEAPSQAS
B2: mukB V714W (protein)
chain: MIERGKFRSLTLINWNGFFARTFDLDELVTTLSGGNGAGKSTTMAAFVTALIPDLTLLHFRNTTEAGATSGSRDKGLHGKLKAGVCYSMLDTINSRHQRVVVGVRLQQVAGRDRKVDIKPFAIQGLPMSVQPTQLVTETLNERQARVLPLNELKDKLEAMEGVQFKQFNSITDYHSLMFDLGIIARRLRSASDRSKFYRLIEASLYGGISSAITRSLRDYLLPENSGVRKAFQDMEAALRENRMTLEAIRVTQSDRDLFKHLISEATNYVAADYMRHANERRVHLDKALEFRRELHTSRQQLAAEQYKHVDMARELAEHNGAEGDLEADYQAASDHLNLVQTALRQQEKIERYEADLDELQIRLEEQNEVVAEAIERQQENEARAEAAELEVDELKSQLADYQQALDVQQTRAIQYNQAIAALNRAKELCHLPDLTADCAAEWLETFQAKELEATEKMLSLEQKMSMAQTAHSQFEQAYQLVVAINGPLARNEAWDVARELLREGVDQRHLAEQVQPLRMRLSELEQRLREQQEAERLLADFCKRQGKNFDIDELEALHQELEARIASLSDSVSNAREERMALRQEQEQLQSRIQSLMQRAPVWLAAQNSLNQLSEQCGEEFTSSQDVTEYLQQLLEREREAIVERDEVGARKNAVDEEIERLSQPGGSEDQRLNALAERFGGVLLSEIYDDVSLEDAPYFSALYGPSRHAIVWPDLSQVTEHLEGLTDCPEDLYLIEGDPQSFDDSVFSVDELEKAVVVKIADRQWRYSRFPEVPLFGRAARESRIESLHAEREVLSERFATLSFDVQKTQRLHQAFSRFIGSHLAVAFESDPEAEIRQLNSRRVELERALSNHENDNQQQRIQFEQAKEGVTALNRILPRLNLLADDSLADRVDEIRERLDEAQEAARFVQQFGNQLAKLEPIVSVLQSDPEQFEQLKEDYAYSQQMQRDARQQAFALTEVVQRRAHFSYSDSAEMLSGNSDLNEKLRERLEQAEAERTRAREALRGHAAQLSQYNQVLASLKSSYDTKKELLNDLQRELQDIGVRADSGAEERARIRRDELHAQLSNNRSRRNQLEKALTFCEAEMDNLTRKLRKLERDYFEMREQVVTAKAGWCAVMRMVKDNGVERRLHRRELAYLSADDLRSMSDKALGALRLAVADNEHLRDVLRMSEDPKRPERKIQFFVAVYQHLRERIRQDIIRTDDPVEAIEQMEIELSRLTEELTSREQKLAISSRSVANIIRKTIQREQNRIRMLNQGLQNVSFGQVNSVRLNVNVRETHAMLLDVLSEQHEQHQDLFNSNRLTFSEALAKLYQRLNPQIDMGQRTPQTIGEELLDYRNYLEMEVEVNRGSDGWLRAESGALSTGEAIGTGMSILVMVVQSWEDESRRLRGKDISPCRLLFLDEAARLDARSIATLFELCERLQMQLIIAAPENISPEKGTTYKLVRKVFQNTEHVHVVGLRGFAPQLPETLPGTDEAPSQAS
B3: mukB V714Q (protein)
chain: MIERGKFRSLTLINWNGFFARTFDLDELVTTLSGGNGAGKSTTMAAFVTALIPDLTLLHFRNTTEAGATSGSRDKGLHGKLKAGVCYSMLDTINSRHQRVVVGVRLQQVAGRDRKVDIKPFAIQGLPMSVQPTQLVTETLNERQARVLPLNELKDKLEAMEGVQFKQFNSITDYHSLMFDLGIIARRLRSASDRSKFYRLIEASLYGGISSAITRSLRDYLLPENSGVRKAFQDMEAALRENRMTLEAIRVTQSDRDLFKHLISEATNYVAADYMRHANERRVHLDKALEFRRELHTSRQQLAAEQYKHVDMARELAEHNGAEGDLEADYQAASDHLNLVQTALRQQEKIERYEADLDELQIRLEEQNEVVAEAIERQQENEARAEAAELEVDELKSQLADYQQALDVQQTRAIQYNQAIAALNRAKELCHLPDLTADCAAEWLETFQAKELEATEKMLSLEQKMSMAQTAHSQFEQAYQLVVAINGPLARNEAWDVARELLREGVDQRHLAEQVQPLRMRLSELEQRLREQQEAERLLADFCKRQGKNFDIDELEALHQELEARIASLSDSVSNAREERMALRQEQEQLQSRIQSLMQRAPVWLAAQNSLNQLSEQCGEEFTSSQDVTEYLQQLLEREREAIVERDEVGARKNAVDEEIERLSQPGGSEDQRLNALAERFGGVLLSEIYDDVSLEDAPYFSALYGPSRHAIVQPDLSQVTEHLEGLTDCPEDLYLIEGDPQSFDDSVFSVDELEKAVVVKIADRQWRYSRFPEVPLFGRAARESRIESLHAEREVLSERFATLSFDVQKTQRLHQAFSRFIGSHLAVAFESDPEAEIRQLNSRRVELERALSNHENDNQQQRIQFEQAKEGVTALNRILPRLNLLADDSLADRVDEIRERLDEAQEAARFVQQFGNQLAKLEPIVSVLQSDPEQFEQLKEDYAYSQQMQRDARQQAFALTEVVQRRAHFSYSDSAEMLSGNSDLNEKLRERLEQAEAERTRAREALRGHAAQLSQYNQVLASLKSSYDTKKELLNDLQRELQDIGVRADSGAEERARIRRDELHAQLSNNRSRRNQLEKALTFCEAEMDNLTRKLRKLERDYFEMREQVVTAKAGWCAVMRMVKDNGVERRLHRRELAYLSADDLRSMSDKALGALRLAVADNEHLRDVLRMSEDPKRPERKIQFFVAVYQHLRERIRQDIIRTDDPVEAIEQMEIELSRLTEELTSREQKLAISSRSVANIIRKTIQREQNRIRMLNQGLQNVSFGQVNSVRLNVNVRETHAMLLDVLSEQHEQHQDLFNSNRLTFSEALAKLYQRLNPQIDMGQRTPQTIGEELLDYRNYLEMEVEVNRGSDGWLRAESGALSTGEAIGTGMSILVMVVQSWEDESRRLRGKDISPCRLLFLDEAARLDARSIATLFELCERLQMQLIIAAPENISPEKGTTYKLVRKVFQNTEHVHVVGLRGFAPQLPETLPGTDEAPSQAS
B4: mukB V760W (protein)
chain: MIERGKFRSLTLINWNGFFARTFDLDELVTTLSGGNGAGKSTTMAAFVTALIPDLTLLHFRNTTEAGATSGSRDKGLHGKLKAGVCYSMLDTINSRHQRVVVGVRLQQVAGRDRKVDIKPFAIQGLPMSVQPTQLVTETLNERQARVLPLNELKDKLEAMEGVQFKQFNSITDYHSLMFDLGIIARRLRSASDRSKFYRLIEASLYGGISSAITRSLRDYLLPENSGVRKAFQDMEAALRENRMTLEAIRVTQSDRDLFKHLISEATNYVAADYMRHANERRVHLDKALEFRRELHTSRQQLAAEQYKHVDMARELAEHNGAEGDLEADYQAASDHLNLVQTALRQQEKIERYEADLDELQIRLEEQNEVVAEAIERQQENEARAEAAELEVDELKSQLADYQQALDVQQTRAIQYNQAIAALNRAKELCHLPDLTADCAAEWLETFQAKELEATEKMLSLEQKMSMAQTAHSQFEQAYQLVVAINGPLARNEAWDVARELLREGVDQRHLAEQVQPLRMRLSELEQRLREQQEAERLLADFCKRQGKNFDIDELEALHQELEARIASLSDSVSNAREERMALRQEQEQLQSRIQSLMQRAPVWLAAQNSLNQLSEQCGEEFTSSQDVTEYLQQLLEREREAIVERDEVGARKNAVDEEIERLSQPGGSEDQRLNALAERFGGVLLSEIYDDVSLEDAPYFSALYGPSRHAIVVPDLSQVTEHLEGLTDCPEDLYLIEGDPQSFDDSVFSVDELEKAVVWKIADRQWRYSRFPEVPLFGRAARESRIESLHAEREVLSERFATLSFDVQKTQRLHQAFSRFIGSHLAVAFESDPEAEIRQLNSRRVELERALSNHENDNQQQRIQFEQAKEGVTALNRILPRLNLLADDSLADRVDEIRERLDEAQEAARFVQQFGNQLAKLEPIVSVLQSDPEQFEQLKEDYAYSQQMQRDARQQAFALTEVVQRRAHFSYSDSAEMLSGNSDLNEKLRERLEQAEAERTRAREALRGHAAQLSQYNQVLASLKSSYDTKKELLNDLQRELQDIGVRADSGAEERARIRRDELHAQLSNNRSRRNQLEKALTFCEAEMDNLTRKLRKLERDYFEMREQVVTAKAGWCAVMRMVKDNGVERRLHRRELAYLSADDLRSMSDKALGALRLAVADNEHLRDVLRMSEDPKRPERKIQFFVAVYQHLRERIRQDIIRTDDPVEAIEQMEIELSRLTEELTSREQKLAISSRSVANIIRKTIQREQNRIRMLNQGLQNVSFGQVNSVRLNVNVRETHAMLLDVLSEQHEQHQDLFNSNRLTFSEALAKLYQRLNPQIDMGQRTPQTIGEELLDYRNYLEMEVEVNRGSDGWLRAESGALSTGEAIGTGMSILVMVVQSWEDESRRLRGKDISPCRLLFLDEAARLDARSIATLFELCERLQMQLIIAAPENISPEKGTTYKLVRKVFQNTEHVHVVGLRGFAPQLPETLPGTDEAPSQAS

biological target: Escherichia coli (laboratory strain); test: barcode share on antibiotic plates over drug-free plates; higher = less susceptible; conditions: antibiotic: carbenicillin; 2× MIC (3.1 µg/mL)
Procedure: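 A pool of E. coli strains, each edited to carry one amino-acid change in an essential protein, was grown for 48 h on minimal glucose agar with or without antibiotic; strain barcodes were sequenced; mean of two replicates.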

Row | Protein | fold change of barcode share
1 | B1 | 0.314 ± 0.17
2 | B2 | 0.163 ± 0.089
3 | B3 | 0.232 ± 0.12
4 | B4 | 0.303 ± 0.23

same assay, conditions: antibiotic: gentamicin; 2× MIC (MIC 0.45 µg/mL)

Row | Protein | fold change of barcode share
5 | B1 | 0.00591 ± 0.00096
6 | B2 | < 0.0151
7 | B3 | 0.0691 ± 0.083
8 | B4 | < 0.0145

— the supplement of paper PMC11876631
